In PubChem BioAssay AID1476 (National Center for Advancing Translational Sciences (NCATS), 2009):
Among all 200,000 compounds or so, about 4,500 (2.2%) were called active. Inconclusive results, whose numbers are uncertain, are shown with a selection of clear calls. The call rests on the fitted dose curve; in most records, active means well fitted inhibition curve with a large enough effect; inconclusive means small, poorly fitted or top-dose-only effect, or effect the other way; inactive means flat fitted curve, though single readings scatter. Where the call is inconclusive, the potency comes from a doubtful curve fit. Where a structure was tested more than once in an assay, its records may differ in their call.
Further: nearly all actives have a fitted effect of over 40% in size.
Potency means the concentration at half of the fitted maximal effect; tags describe the fitted curve by direction and shape.
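Wherever max response, negative = inhibition is given: plate controls were enzyme without inhibitor for no effect and buffer without enzyme for full effect.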

These molecules were tested against Cruzipain (Trypanosoma cruzi) (UniProt P25779) (assay: qHTS Assay for Promiscuous and Specific Inhibitors of Cruzain (without detergent)). Conditions: purified cruzain, Z-FR-AMC fluorescence, no detergent.
Sequence of UniProt P25779 (P25779 whole entry, looked up): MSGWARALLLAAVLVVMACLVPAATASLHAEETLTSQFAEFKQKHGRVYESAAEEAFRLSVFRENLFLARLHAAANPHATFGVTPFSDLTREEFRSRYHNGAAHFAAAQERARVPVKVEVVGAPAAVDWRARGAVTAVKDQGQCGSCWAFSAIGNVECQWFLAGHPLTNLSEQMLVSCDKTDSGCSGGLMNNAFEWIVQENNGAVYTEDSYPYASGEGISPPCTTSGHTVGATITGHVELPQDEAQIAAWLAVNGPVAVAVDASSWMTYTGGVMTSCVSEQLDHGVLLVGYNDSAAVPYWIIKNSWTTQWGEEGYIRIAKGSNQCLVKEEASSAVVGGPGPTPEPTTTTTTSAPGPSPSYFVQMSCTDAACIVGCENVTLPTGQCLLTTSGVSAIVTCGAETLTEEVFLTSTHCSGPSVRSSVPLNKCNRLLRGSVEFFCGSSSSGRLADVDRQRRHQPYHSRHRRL
Procedure, shortened: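 Detergent-free condition (0.00005% Triton X-100) in acetate buffer pH 5.5 with DTT. 1.5 nM enzyme and compound were pre-mixed 15 min, then 2 uM Z-FR-AMC substrate added; reaction progress from fluorescence change between first and third reads (60 s).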
For `N#Cc1ccccc1NC(=O)c1cccc(COc2ccc(Cl)cc2Cl)c1`, the Potency was inconclusive: 39.8 µM [inhibitor, single point].
With `CCOc1cc(CNCCSc2nnnn2C)cc(Cl)c1OCc1ccc(Cl)cc1` the max response, negative = inhibition was inactive: 28.9%.
For `c1ccc2c(c1)CCN2CCN1CCc2ccccc21`, the Potency was active: 10 µM.
For `COC(=O)[C@@]1(Cc2ccc(F)cc2)[C@H]2c3cc(C(=O)N4CCCC4)n(C[C@H](O)CO)c3C[C@H]2CN1C(=O)c1ccccc1`, the Potency was inconclusive: 10 µM [activator, partial curve].
For `Cn1c(=O)n(C)c2cc(N3CCOCC3)c(NS(=O)(=O)c3ccc(Br)cc3)cc21`, the Potency was inconclusive: 39.8 µM [activator, single point].
In the case of `CC(C)(C)Cc1nnc(NC(=O)c2cc(-c3ccccc3)nc3ccccc23)s1`, the Potency is reported as inconclusive: 39.8 µM [inhibitor, single point].
`Cc1cccc(N2CCN(C(=O)CCCn3ncn4c(cc5occc54)c3=O)CC2)c1C` was tested, and the Potency was inconclusive: 31.6 µM [activator, single point].
With `CC1=C([N+](=O)[O-])C(c2cccc(Br)c2)C2=C(N1)c1ccccc1C2=O` (configuration not stated) the Potency was inconclusive: 31.6 µM [inhibitor, single point].
`CCOC(=O)c1ccc(CN(Cc2ccc(F)cc2)S(=O)(=O)c2cc(C(=O)Nc3ccccc3CC)ccc2F)cc1` was tested, and the Potency was inconclusive: 7.94 µM [inhibitor, full curve, poor fit].
For `Cc1ccc(-c2cc(C(=O)Nc3ccc(S(=O)(=O)Nc4nccs4)cc3)c3ccccc3n2)c(C)c1`, the Potency was inconclusive: 20 µM [inhibitor, partial curve].
In the case of `Cc1ccc2ccc3cc(C(=O)Nc4ccc(C)c(F)c4)nc3c2[nH]1`, the Potency is reported as inconclusive: 31.6 µM [inhibitor, partial curve, poor fit].
For `COC(=O)C1=C(C)N(Cc2ccc(C)cc2)C(=O)/C1=C\c1cc(OC)c(OC)c(OC)c1`, the Potency was inconclusive: 39.8 µM [activator, single point].
In the case of `CN(C)c1ccc(-c2noc(-c3ccccc3O)n2)cc1`, the Potency is reported as active: 25.1 µM.
For `CCC(C(=O)N(C)Cc1ccccc1)n1nc(C)c2sc3ccccc3c2c1=O` (configuration not stated), the Potency was inconclusive: 31.6 µM [inhibitor, single point].
In the case of `C=CCn1c(SCC(C)=O)nnc1-c1cc(-c2ccccc2)sc1N`, the Potency is reported as inconclusive: 39.8 µM [activator, single point].
For `O=C(Nc1nnc(COc2ccccc2)s1)c1ccco1`, the Potency was inconclusive: 39.8 µM [inhibitor, single point].
In the case of `CCCCCCC(=O)Cc1cc(OC)c(OC)cc1C=C(C(=O)OCC)C(=O)OCC`, the Potency is reported as inconclusive: 31.6 µM [activator, single point].
In the case of `COc1ccc(Cl)cc1NC(=O)CN1C(=O)CSc2ccc(S(=O)(=O)N3CCCC3)cc21`, the max response, negative = inhibition is reported as inactive: -9.18%.
`Cc1cc(NC(=O)c2ccco2)cc(-c2nc3cc(Cl)ccc3o2)c1O` was tested, and the max response, negative = inhibition was inactive: -10.3%.
`O=C(C1CC1)N1CCc2cc(Br)cc(S(=O)(=O)NCc3ccc4c(c3)OCO4)c21` was tested, and the Potency was inconclusive: 39.8 µM [inhibitor, single point].
With `CCOC(=O)N1CCc2c(sc(NC(=O)c3ccc(Cl)s3)c2C(N)=O)C1` the Potency was inconclusive: 39.8 µM [activator, single point].
`CCc1ccc(C(=O)c2cn(CC(=O)Nc3cccc(C)c3C)c3nc(C)ccc3c2=O)cc1` was tested, and the max response, negative = inhibition was inactive: -3.25%.
For `Cn1c(=O)c(C(=O)CN2CCc3ccccc32)c(N)n(Cc2ccccc2)c1=O`, the Potency was inconclusive: 39.8 µM [inhibitor, single point].
`CC(=O)N(Cc1cccnc1)c1nc2cc(C)cc(C)c2s1` was tested, and the Potency was inconclusive: 31.6 µM [activator, single point].
With `C[C@]12C[C@@](C)(C=C1/C=C/c1ccccc1)C(=O)C[C@H]2c1ccccc1` the max response, negative = inhibition was inactive: -3.49%.
With `COc1ccc(C(=O)N2CCc3cc(OC)c(OC)cc3C2c2cccc([N+](=O)[O-])c2)cc1` (configuration not stated) the Potency was inconclusive: 39.8 µM [activator, single point].
For `Cc1ccc(S(=O)(=O)N(CC(=O)Nc2ccc3c(c2)OCO3)c2ccc(C)c(Cl)c2)cc1`, the max response, negative = inhibition was inactive: -22.6%.
For `Cc1nc(C(=O)Nc2cccc(Cl)c2Cl)nn1-c1cc(OC(C)C)c(Cl)cc1Cl`, the Potency was inconclusive: 31.6 µM [inhibitor, single point].
In the case of `CCOC(=O)c1sc(NC(=O)c2ccc(Cl)s2)cc1C`, the Potency is reported as inconclusive: 31.6 µM [inhibitor, single point].
For `Cn1c(SCC(=O)Nc2cc(=O)n(C)c(=O)n2C)nnc1C12CC3CC(CC(C3)C1)C2`, the Potency was inconclusive: 31.6 µM [inhibitor, single point].
`Cc1ccc(N(CC(=O)NC2CCCCCC2)S(=O)(=O)c2c(C)nn(C)c2C)cc1` was tested, and the Potency was inconclusive: 31.6 µM [activator, partial curve].
With `CC(C)CCn1c(=S)[nH]c2ncccc2c1=O` the Potency was inconclusive: 25.1 µM [inhibitor, single point].
In the case of `Cc1cc(C)cc(NC(=O)C2CCN(S(=O)(=O)c3ccc4c(c3)oc(=O)n4C)CC2)c1`, the max response, negative = inhibition is reported as inactive: -6.9%.
In the case of `O=S(=O)(Cc1ccccc1)c1nnnn1C1CCCCC1`, the max response, negative = inhibition is reported as inactive: -1.31%.
In the case of `CC(=O)N1CCCc2cc(S(=O)(=O)N3CCN(c4cccc(C(F)(F)F)c4)CC3)ccc21`, the Potency is reported as inconclusive: 31.6 µM [activator, single point].
`O=C1SCC(c2ccc(Cl)cc2Cl)=NN1Cc1nnc(-c2ccccc2)o1` was tested, and the Potency was active: 15.8 µM.
For `O=C(c1cccn2c(=O)c3ccc(Cl)cc3nc12)N1CCN(Cc2ccc3c(c2)OCO3)CC1`, the Potency was inconclusive: 25.1 µM [activator, single point].
`Cc1ccc(-c2cc(C(F)(F)F)nn2-c2ccc(S(N)(=O)=O)cc2)cc1` was tested, and the Potency was inconclusive: 39.8 µM [activator, single point].
`Cc1cc(C(=O)CN2C(=O)NC3(CCCc4ccccc43)C2=O)c(C)n1Cc1cccs1` (configuration not stated) was tested, and the Potency was inconclusive: 25.1 µM [inhibitor, single point].
`COc1ccc(-c2cc(=O)oc3c4c(ccc23)OCN(Cc2cccc(OC)c2)C4)cc1` was tested, and the Potency was inconclusive: 31.6 µM [inhibitor, single point].
With `O=S(=O)(c1ccccc1)N1CN2CN(C1)CN(S(=O)(=O)c1ccccc1)C2` the max response, negative = inhibition was inactive: 5.09%.
In the case of `CCOC(=O)c1ccc(NC(=O)c2ccc(C)c(S(=O)(=O)N3CCOCC3)c2)cc1`, the Potency is reported as inconclusive: 39.8 µM [activator, single point].
In the case of `COc1ccc(OC)c(NC(=S)N(CCc2c(C)[nH]c3ccccc23)Cc2cccs2)c1`, the Potency is reported as inconclusive: 39.8 µM [inhibitor, single point].
With `CC1CCN(C(=O)C2CCN(C(=O)c3cc4sccc4n3Cc3ccc(F)cc3)CC2)CC1` the Potency was inconclusive: 25.1 µM [activator, single point].
In the case of `Cc1ccc(NC(=O)Cn2cc(S(=O)(=O)c3ccccc3)c(=O)c3cc4c(cc32)OCO4)cc1`, the Potency is reported as inconclusive: 25.1 µM [inhibitor, partial curve, poor fit].
In the case of `COc1ccccc1Nc1nn2c(=O)c3ccc(C(=O)NC(C)c4ccccc4)cc3nc2s1` (configuration not stated), the Potency is reported as inconclusive: 7.94 µM [inhibitor, single point].
With `CN1C(=O)COc2ccc(C(=O)c3oc4ccccc4c3-c3cnc4c(c3)COc3ccccc3-4)cc21` the Potency was inconclusive: 31.6 µM [inhibitor, single point].
With `COc1ccc(C2c3[nH]c4ccc(OC)cc4c3CCN2C(=O)Nc2ccccc2)cc1` (configuration not stated) the Potency was active: 25.1 µM.
For `N=C(N)SCc1nc2ccccc2c(=O)n1-c1ccccc1`, the Potency was active: 25.1 µM.
In the case of `O=C(Nc1nc(=O)c2ccccc2s1)c1ccc(Cl)cc1`, the Potency is reported as active: 10 µM.
With `CC(C)c1ccc(Nc2nc3c(S(=O)(=O)c4ccc(Br)cc4)nnn3c3ccsc23)cc1` the max response, negative = inhibition was inactive: -13.1%.
`O=c1oc2cc(O)ccc2cc1-c1ccc(F)cc1` was tested, and the Potency was inconclusive: 25.1 µM [activator, single point].
For `COc1ccc(S(=O)(=O)N2CCCCCC2)cc1NC(=O)c1c2c(nc3ccccc13)CCN(Cc1ccccc1)C2`, the Potency was inconclusive: 25.1 µM [activator, single point].
With `O=C(/C=C/c1cn(CC(O)CN2CCCCCC2)c2ccccc12)c1ccc(Br)cc1` (configuration not stated) the Potency was inconclusive: 25.1 µM [inhibitor, single point].
With `Cn1cc(/C=N/NC(=O)c2cccc([N+](=O)[O-])c2)c2ccccc21` the Potency was inconclusive: 39.8 µM [inhibitor, single point].
In the case of `CCOC(=O)c1scc(-c2ccccc2)c1S(=O)(=O)N1CCN(c2ccccc2OC)CC1`, the max response, negative = inhibition is reported as inactive: 9.38%.
`NC(=S)N/N=C/c1ccccc1OCCSc1ccc(Cl)cc1` was tested, and the Potency was active: 1 µM.
For `CC(=O)c1cccc(NS(=O)(=O)c2ccc(N/C=C/C(=O)c3ccc(F)cc3)cc2)c1`, the Potency was inconclusive: 25.1 µM [inhibitor, single point].
With `Cc1cc(/C=C2\C(=O)NC(=O)N(Cc3ccccc3)C2=O)c(C)n1-c1ccc(Cl)c(C(=O)O)c1` the Potency was inconclusive: 25.1 µM [activator, single point].
`CCc1ccc(NC(=O)CCNS(=O)(=O)c2ccc3c(c2)CCCC(=O)N3)cc1` was tested, and the max response, negative = inhibition was inactive: 2.96%.
With `O=C(CNc1ccc2ccccc2c1)N/N=C/c1ccc(OC(=O)/C=C/c2ccco2)cc1` the Potency was inconclusive: 39.8 µM [inhibitor, single point].
In the case of `O=C(Nc1ccc(S(=O)(=O)Nc2nccs2)cc1)c1cc(-c2ccccc2)nc2ccccc12`, the max response, negative = inhibition is reported as inactive: 1.14%.
